Measured values reported in the supplement of paper PMC6089552.
Values joined by “and” are separate entries in the source; they are usually repeats but may differ in a detail not shown here. Identical values can stand only once. About 300 (9.4%) of roughly 3,200 compounds showed activity. Only a part is listed here, and it is no random draw.

System: A673/TR/shEF
Experiment: cell viability (LOESS-normalised, relative to median of negative controls) (log2 ratio); higher = more viable cells (less compound effect), active = hit call of the paper (over 3 MAD below the median)
Conditions: treatment time: 72 h
Outline: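 A673/TR/shEF Ewing sarcoma cells (1,500 per well, 384-well plates) were grown with or without doxycycline to induce EWS-FLI1 shRNA knockdown, starting 24 h before compounds. Library compounds at two or more concentrations, with DMSO controls, were added for three days. Cell viability was read by CellTiter-Glo luminescence on an Envision reader, then LOESS-corrected per plate, divided by the median of negative controls and log2-transformed. Hits were wells at least three median absolute deviations from the median of all screened wells.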

[1] = 0.25 µM, library screen: screen2, EWS-FLI1 expression: high (no doxycycline)
[2] = 0.25 µM, library screen: screen2, EWS-FLI1 expression: low (doxycycline-induced shRNA knockdown)
[3] = 2.5 µM, library screen: screen2, EWS-FLI1 expression: high (no doxycycline)
[4] = 2.5 µM, library screen: screen2, EWS-FLI1 expression: low (doxycycline-induced shRNA knockdown)
[5] = 0.25 µM, library screen: screen1, EWS-FLI1 expression: high (no doxycycline)
[6] = 0.25 µM, library screen: screen1, EWS-FLI1 expression: low (doxycycline-induced shRNA knockdown)
[7] = 2.5 µM, library screen: screen1, EWS-FLI1 expression: high (no doxycycline)
[8] = 2.5 µM, library screen: screen1, EWS-FLI1 expression: low (doxycycline-induced shRNA knockdown)

Measured: cell viability (log2)

CN[C@@H]1C[C@@H](c2ccc(Cl)c(Cl)c2)c2ccccc21
inactive: [1] 0.0875 | [2] 0.13 | [3] 0.173 | [4] 0.199

COC1C[C@H](O[C@H]2CC[C@]3(C)C4CC[C@]5(C)[C@@H](C6=CC(=O)OC6)CC[C@]5(O)C4CC[C@]3(O)C2)OC(C)[C@H]1O (some centres not stated)
active: [5] -0.209 | [6] -0.262 | [7] -3.79 | [8] -2.17

NCCc1ccc(S(=O)(=O)F)cc1
active: [1] -0.0889
inactive: [2] 0.067 | [3] -0.0377 | [4] 0.0161

CCOP(=S)(OCC)SCSP(=S)(OCC)OCC
inactive: [5] 0.0176 | [6] 0.0157 | [7] 0.0447 | [8] 0.0694

C[C@H](N)[C@H](O)c1ccc(O)c(O)c1
inactive: [5] 0.0607 | [6] 0.115 | [7] 0.154 | [8] 0.141

CC[C@@]1(O)C[C@H](O[C@H]2C[C@H](N(C)C)[C@H](O)[C@H](C)O2)c2c(cc3c(c2O)C(=O)c2c(O)cccc2C3=O)[C@H]1C(=O)OC
active: [7] -1.99 and -0.594 | [8] -0.405 and -0.193

CC(C)N(CCC(C(N)=O)(c1ccccc1)c1ccccn1)C(C)C (configuration not stated)
inactive: [5] 0.118 | [6] 0.068 | [1] 0.102 | [2] 0.0965 | [7] 0.167 | [8] 0.146 | [3] 0.0737 | [4] 0.0918

COC(=O)/C(C)=C\CC12OC(C)(C)C3CC(C=C4C(=O)c5c(OC)c6c(c(CC=C(C)C)c5OC431)OC(C)(CCC=C(C)C)C=C6)C2=O (configuration not stated)
active: [7] -4.2 | [8] -3.74

OC1CCCCC1N1CCC(c2ccccc2)CC1 (configuration not stated)
inactive: [5] 0.0599 | [6] 0.121 | [1] 0.0428 | [2] 0.0615 | [7] 0.141 | [8] 0.21 | [3] 0.252 | [4] 0.0803

N[C@@H](Cc1ccc(N(CCCl)CCCl)cc1)C(=O)O
inactive: [5] 0.0874 | [6] 0.0161 | [1] 0.175 | [2] 0.17 | [7] 0.00755 | [8] 0.0488 | [3] 0.22 | [4] 0.172

CCN1C[C@]2(C)CC[C@H](OC)[C@@]34C1[C@]1(OCO[C@@]15C[C@H](OC)[C@H]1C[C@]3(O)[C@@H]5[C@H]1OC)[C@@H](OC(C)=O)[C@H]24
inactive: [5] 0.0895 | [6] 0.0208 | [7] 0.12 | [8] 0.0444

CC(C)=CCOc1c2occc2cc2ccc(=O)oc12
inactive: [5] 0.059 | [6] 0.0156 | [7] 0.0916 | [8] -0.0403

CN1C[C@H](C(=O)N[C@]2(C)O[C@@]3(O)[C@@H]4CCCN4C(=O)[C@H](Cc4ccccc4)N3C2=O)C[C@@H]2c3cccc4[nH]cc(c34)C[C@H]21
inactive: [5] 0.0326 | [6] -0.00656 | [1] 0.184 | [2] -0.00377 | [7] 0.134 | [8] 0.0537 | [3] 0.0731 | [4] 0.0543

O=C1NCN(c2ccccc2)C12CCN(CC1COc3ccccc3O1)CC2 (configuration not stated)
inactive: [1] 0.177 | [2] 0.0806 | [3] 0.104 | [4] 0.0692

CC(C)OC(=O)Nc1cccc(Cl)c1
inactive: [5] 0.0318 | [6] 0.0622 | [7] 0.14 | [8] 0.113

c1ccc2nc(N3CCNCC3)ccc2c1
inactive: [5] 0.0719 | [6] 0.0592 | [1] 0.196 | [2] 0.0365 | [7] 0.0383 | [8] 0.12 | [3] 0.14 | [4] 0.00635

C[N+](C)(C)CCCCCCCCCC[N+](C)(C)C
inactive: [1] 0.191 | [2] 0.0505 | [3] 0.0497 | [4] 0.0976

C=C(C)c1cc2cc(C(C)=O)c(O)cc2o1
inactive: [5] 0.113 | [6] 0.098 | [7] 0.0228 | [8] 0.00912

Cc1c(C(=O)c2cccc3ccccc23)c2cccc3c2n1[C@H](CN1CCOCC1)CO3
inactive: [1] 0.156 | [2] 0.114 | [3] 0.0797 | [4] 0.063

COC(=O)[C@]1(C)CC[C@]2(C)CC[C@]3(C)C4=CCc5c(cc(O)c(O)c5C)[C@]4(C)CC[C@@]3(C)[C@@H]2C1
active: [7] -1.44 | [8] -0.357
inactive: [5] 0.0264 | [6] 0.158

CC(CCc1ccccc1)NC(C)C(O)c1ccc(O)cc1 (configuration not stated)
inactive: [5] -0.071 | [6] 0.0658 | [1] 0.181 | [2] 0.0652 | [7] 0.0745 | [8] 0.0738 | [3] 0.119 | [4] -0.0269

CC(=O)OC1CN2CCC1CC2 (configuration not stated)
inactive: [5] 0.0435 | [6] 0.00094 | [7] 0.0444 | [8] 0.0838

O=C1C[C@@H]2OCC=C3CN4CC[C@]56c7ccccc7N1[C@H]5[C@H]2[C@H]3C[C@H]46
inactive: [5] 0.102 | [6] 0.0744 | [7] 0.121 | [8] 0.13

CC[C@@]1(O)C(=O)OCc2c1cc1n(c2=O)Cc2cc3ccccc3nc2-1
active: 0.103 µM, library screen: screen3, EWS-FLI1 expression: high (no doxycycline) -1.01 | [5] -2.18 | [6] -0.586 | [1] -2.99 | [2] -0.42 | 0.308 µM, library screen: screen3, EWS-FLI1 expression: high (no doxycycline) -2.37 | 0.308 µM, library screen: screen3, EWS-FLI1 expression: low (doxycycline-induced shRNA knockdown) -0.543 | 0.926 µM, library screen: screen3, EWS-FLI1 expression: high (no doxycycline) -3.61 | 0.926 µM, library screen: screen3, EWS-FLI1 expression: low (doxycycline-induced shRNA knockdown) -0.88 | [7] -1.57 | [8] -0.388 | [3] -3.53 | [4] -0.945 | 2.8 µM, library screen: screen3, EWS-FLI1 expression: high (no doxycycline) -4.24 | 2.8 µM, library screen: screen3, EWS-FLI1 expression: low (doxycycline-induced shRNA knockdown) -1.16 | 8.3 µM, library screen: screen3, EWS-FLI1 expression: high (no doxycycline) -4.26 | 8.3 µM, library screen: screen3, EWS-FLI1 expression: low (doxycycline-induced shRNA knockdown) -1.3 | 25 µM, library screen: screen2, EWS-FLI1 expression: high (no doxycycline) -4.09 | 25 µM, library screen: screen2, EWS-FLI1 expression: low (doxycycline-induced shRNA knockdown) -1.25 | 25 µM, library screen: screen3, EWS-FLI1 expression: high (no doxycycline) -4.26 | 25 µM, library screen: screen3, EWS-FLI1 expression: low (doxycycline-induced shRNA knockdown) -2.33

C[C@]12Cc3cn4c(nc3C=C1CCC1C2CC[C@@]2(C)[C@H]1CC[C@@]2(O)C#N)nc1ccccc14 (some centres not stated)
inactive: [1] 0.119 | [2] 0.112 | [3] 0.295 | [4] 0.0843

NCCc1cc(O)c(O)cc1O
inactive: [5] 0.0637 | [6] 0.155 | [7] 0.144 | [8] 0.129

C#CCOS(=O)OC1CCCCC1Oc1ccc(C(C)(C)C)cc1 (configuration not stated)
inactive: [5] -0.0142 | [6] 0.0922 | [7] 0.0133 | [8] 0.0117

CC(C)=CCC[C@]1(C)C=Cc2c(O)c3c(c(CC=C(C)C)c2O1)O[C@]12C(=C[C@@H]4C[C@H]1C(C)(C)O[C@@]2(C/C=C(/C)C(=O)O)C4=O)C3=O
inactive: [5] -0.0514 | [6] 0.129 | [8] -0.0142
active: [7] -1.16

Clc1cccc(N2CCNCC2)c1
inactive: [1] 0.229 | [2] 0.082 | [3] 0.142 | [4] 0.0632

CN1CCCCC1c1ccc(-c2cccnc2)nc1 (configuration not stated)
inactive: [5] 0.0627 | [6] 0.00582 | [7] 0.21 | [8] 0.148

C[C@H]1CCC/C=C/[C@@H]2C[C@H](O)C[C@H]2[C@H](O)/C=C/C(=O)O1
active: [1] -0.127 | [2] -0.561 | [3] -3.76 | [4] -3.56

CC(N)[C@H](O)c1ccc(O)c(O)c1 (some centres not stated)
inactive: [1] 0.189 | [2] 0.0295 | [3] 0.0292 | [4] 0.129

Cc1ncc(CNC(=O)N(CCCl)N=O)c(N)n1
inactive: [5] 0.142 | [6] 0.0123 | [1] 0.147 | [2] 0.105 | [7] 0.103 | [8] -0.0366 | [3] 0.145 | [4] 0.0381

COC(=O)[C@]1(C)CC[C@]2(C)CC[C@]3(C)C4=CC=C5C(=CC(=O)C(O)=C5C)[C@]4(C)CC[C@@]3(C)[C@@H]2C1
active: [7] -2.91 | [8] -3.05
inactive: [5] -0.0347 | [6] 0.133

COc1ccc(CN2CCN(Cc3cccc(F)c3)CC2)cc1
inactive: [5] 0.0679 | [6] 0.104 | [7] 0.124 | [8] 0.0696

COc1ccc2[nH]cc(CCN)c2c1
inactive: [5] 0.0364 | [6] 0.00397 | [1] 0.14 | [2] 0.163 | [7] 0.0538 | [8] 0.0996 | [3] 0.179 | [4] 0.0743

CCCCCCCCCc1ccc(O)cc1
inactive: [5] 0.112 | [6] 0.0261 | [7] 0.0682 | [8] -2.86

C[C@@H]([C@H](O)c1ccccc1)N(C)C
inactive: [5] 0.0401 | [6] 0.0644 | [7] -0.0124 | [8] 0.0641

c1ccc2c(c1)cc1ccc3cccc4ccc2c1c34
inactive: [5] 0.0949 | [6] 0.14 | [7] 0.11 | [8] 0.179

Oc1ccc2c3c1O[C@H]1c4[nH]c5c(c4C[C@@]4(O)[C@@H](C2)N(CC2CC2)CC[C@]314)C[C@@]1(O)[C@H]2Cc3ccc(O)c4c3[C@@]1(CCN2CC1CC1)[C@H]5O4
inactive: [1] 0.0981 | [2] 0.136 | [3] 0.129 | [4] 0.0705

CC(C)N1C(=O)c2ccccc2NS1(=O)=O
inactive: [5] 0.113 | [6] 0.086 | [7] 0.0391 | [8] 0.0775

CCCN1C[C@H](CSC)C[C@@H]2c3cccc4[nH]cc(c34)C[C@H]21
inactive: [5] 0.0106 | [6] 0.0697 | [1] 0.243 | [2] 0.105 | [7] 0.0948 | [8] 0.162 | [3] 0.237 | [4] 0.0808
